A word on the Ki: it is the equilibrium dissociation constant of an inhibitor or competing ligand from its target.

Experimental findings from patent US7592316B2, “Peptides as NS3-serine protease inhibitors of hepatitis C virus” (Schering Corporation, priority 2000, dated 2009) are described below.

The target in the first assay is HCV NS3/NS4A protease (strain 1a) (Hepatitis C virus genotype 1a, UniProt P27958). Description: biochemical. Conditions: Compounds prepared by Solid Phase Synthesis, Table 3; read-out: Ki* CLASS. As for the experimental part: Assay for HCV Protease Inhibitory Activity:
Spectrophotometric Assay Spectrophotometric assay for the HCV serine protease was performed on the inventive compounds by following the procedure described by R. Zhang et al, Analytical Biochemistry, 270 (1999) 268-275, the disclosure of which is incorporated herein by reference. The assay based on the proteolysis of chromogenic ester substrates is suitable for the continuous monitoring of HCV NS3 protease activity. The substrates were derived from the P side of the NS5A-NS5B junction sequence (Ac-DTEDWX(Nva), where X=A or chromophoric alcohols (3- or 4-nitrophenol, 7-hydroxy-4-methyl-coumarin, or 4-phenylazophenol). Presented below are the synthesis, characterization and application of these novel spectrophotometric ester substrates to high throughput screening and detailed kinetic evaluation of HCV NS3 protease inhibitors.
Protein concentrations were determined by the Biorad dye method using recombinant HCV protease standards previously quantified by amino acid analysis. Prior to assay initiation, the enzyme storage buffer (50 mM sodium phosphate pH 8.0, 300 mM NaCl, 10% glycerol, 0.05% lauryl maltoside and 10 mM DTT) was exchanged for the assay buffer (25 mM MOPS pH 6.5, 300 mM NaCl, 10% glycerol, 0.05% lauryl maltoside, 5 μM EDTA and 5 μM DTT) utilizing a Biorad Bio-Spin P-6 prepacked column.
Protease Assay: HCV protease assays were performed at 30° C. using a 200 μl reaction mix in a 96-well microtiter plate. Assay buffer conditions (25 mM MOPS pH 6.5, 300 mM NaCl, 10% glycerol, 0.05% lauryl maltoside, 5 μM EDTA and 5 μM DTT) were optimized for the NS3/NS4A heterodimer (D. L. SalI et al, ibid.)). […] Fifty μls of prewarmed protease (12 nM, 30° C.) in assay buffer, was then used to initiate the reaction (final volume 200 μl). The plates were monitored over the length of the assay (60 minutes) for change in absorbance at the appropriate wavelength (340 nm for 3-Np and HMC, 370 nm for PAP, and 400 nm for 4-Np) using a Spectromax Plus microtiter plate reader equipped with a monochrometer (acceptable results can be obtained with plate readers that utilize cutoff filters). Proteolytic cleavage of the ester linkage between the Nva and the chromophore was monitored at the appropriate wavelength against a no enzyme blank as a control for non-enzymatic hydrolysis. The evaluation of substrate kinetic parameters was performed over a 30-fold substrate concentration range (˜6-200 μM). Initial velocities were determined using linear regression and kinetic constants were obtained by fitting the data to the Michaelis-Menten equation using non-linear regression analysis (Mac Curve Fit 1.1, K. Raner). Turnover numbers (kcat) were calculated assuming the enzyme was fully active.
The resulting data were fitted using linear regression and the resulting slope, 1/(Ki*(1+[S] o/Km), was used to calculate the Ki* value.
`CCCC(NC(=O)[C@@H]1C[C@@H](OC(C)(C)C)CN1C(=O)[C@@H](NC(=O)Cc1ccccc1)C1CCCCC1)C(=O)C(=O)NCC(=O)NC(C(N)=O)c1cc(C)cc(C)c1` (some centres unmarked): the Ki fell in the range of 101 to 1000 nM. The same measure, in the same setting: to `CCCC(NC(=O)[C@@H]1C[C@@H](OC(C)(C)C)CN1C(=O)[C@@H](NC(=O)c1c(F)cccc1F)C1CCCCC1)C(=O)C(=O)NCC(=O)NC(C(N)=O)c1cc(C)cc(C)c1` (some centres unmarked) belongs 101 to 1000 nM; to `CCCC(NC(=O)[C@@H]1C[C@@H](OC(C)(C)C)CN1C(=O)[C@@H](NC(=O)c1ccccc1C(=O)O)C1CCCCC1)C(=O)C(=O)NCC(=O)NC(C(N)=O)c1cc(C)cc(C)c1` (some centres unmarked), 101 to 1000 nM.

Consider `CCCC(NC(=O)[C@@H]1C[C@@H](OC(C)(C)C)CN1C(=O)[C@@H](NC(=O)c1c(F)c(F)c(F)c(F)c1C(=O)O)C1CCCCC1)C(=O)C(=O)NCC(=O)NC(C(N)=O)c1cc(C)cc(C)c1` (some centres unmarked), for which the Ki is 1 to 100 nM.

Consider `CCCC(NC(=O)[C@@H]1C[C@@H](OC(C)(C)C)CN1C(=O)[C@@H](NC(=O)OCC(C)C)C1CCCCC1)C(=O)C(=O)NCC(=O)NC(C(N)=O)c1cc(C)cc(C)c1` (some centres unmarked), for which the Ki is 101 to 1000 nM.

As to `CCCC(NC(=O)[C@@H]1C[C@@H](OC(C)(C)C)CN1C(=O)[C@@H](NC(=O)c1c(F)cccc1F)C1CCCCC1)C(=O)C(=O)NCC(=O)NC(CC(N)=O)c1ccccc1` (some centres unmarked), the Ki is greater than 1000 nM.

For the compound `CCCC(NC(=O)[C@@H]1C[C@@H](OC(C)(C)C)CN1C(=O)[C@@H](NC(=O)c1ccccc1C(=O)O)C1CCCCC1)C(=O)C(=O)NCC(=O)NC(CC(N)=O)c1ccccc1` (some centres unmarked), the Ki is greater than 1000 nM. The same measure, in the same setting: to `CCCC(NC(=O)[C@@H]1C[C@@H](OC(C)(C)C)CN1C(=O)[C@@H](NC(=O)c1c(F)c(F)c(F)c(F)c1C(=O)O)C1CCCCC1)C(=O)C(=O)NCC(=O)NC(CC(N)=O)c1ccccc1` (some centres unmarked) belongs 101 to 1000 nM. On to `CCCC(NC(=O)[C@@H]1C[C@@H](OC(C)(C)C)CN1C(=O)[C@@H](NC(=O)OCC(C)C)C1CCCCC1)C(=O)C(=O)NCC(=O)NC(CC(N)=O)c1ccccc1` (some centres unmarked), for which the Ki is greater than 1000 nM.

In the case of `CCCC(NC(=O)[C@@H]1C[C@@H](OC(C)(C)C)CN1C(=O)[C@@H](NC(=O)c1c(F)cccc1F)C1CCCCC1)C(=O)C(=O)NCC(=O)NC(C(N)=O)c1cccc2c1OCO2` (some centres unmarked), the Ki lay within 101 to 1000 nM. Consider `CCCC(NC(=O)[C@@H]1C[C@@H](OC(C)(C)C)CN1C(=O)[C@@H](NC(=O)c1ccccc1C(=O)O)C1CCCCC1)C(=O)C(=O)NCC(=O)NC(C(N)=O)c1cccc2c1OCO2` (some centres unmarked), for which the Ki is 101 to 1000 nM. Same read-out and setting: the same measure for `CCCC(NC(=O)[C@@H]1C[C@@H](OC(C)(C)C)CN1C(=O)[C@@H](NC(=O)c1c(F)c(F)c(F)c(F)c1C(=O)O)C1CCCCC1)C(=O)C(=O)NCC(=O)NC(C(N)=O)c1cccc2c1OCO2` (some centres unmarked): 101 to 1000 nM. The same measure, in the same setting: to `CCCC(NC(=O)[C@@H]1C[C@@H](OC(C)(C)C)CN1C(=O)[C@@H](NC(=O)OCC(C)C)C1CCCCC1)C(=O)C(=O)NCC(=O)NC(C(N)=O)c1cccc2c1OCO2` (some centres unmarked) belongs 101 to 1000 nM; to `CCCC(NC(=O)[C@@H]1C[C@@H](OC(C)(C)C)CN1C(=O)[C@@H](NC(=O)c1c(F)cccc1F)C1CCCCC1)C(=O)C(=O)NCC(=O)NC(C(N)=O)c1cccc(C)c1` (some centres unmarked), 101 to 1000 nM. On the same count and under the same terms, to `CCCC(NC(=O)[C@@H]1C[C@@H](OC(C)(C)C)CN1C(=O)[C@@H](NC(=O)c1ccccc1C(=O)O)C1CCCCC1)C(=O)C(=O)NCC(=O)NC(C(N)=O)c1cccc(C)c1` (some centres unmarked) belongs 101 to 1000 nM; to `CCCC(NC(=O)[C@@H]1C[C@@H](OC(C)(C)C)CN1C(=O)[C@@H](NC(=O)c1c(F)c(F)c(F)c(F)c1C(=O)O)C1CCCCC1)C(=O)C(=O)NCC(=O)NC(C(N)=O)c1cccc(C)c1` (some centres unmarked), 101 to 1000 nM; to `CCCC(NC(=O)[C@@H]1C[C@@H](OC(C)(C)C)CN1C(=O)[C@@H](NC(=O)OCC(C)C)C1CCCCC1)C(=O)C(=O)NCC(=O)NC(C(N)=O)c1cccc(C)c1` (some centres unmarked), 101 to 1000 nM.

Staying with this assay, now noted: Ki* Range, Table 5; HCV NS3/NS4A protease, 30° C., pH 6.5.
Compound `C=CCCC(NC(=O)[C@@H]1[C@H]2[C@@H](CN1C(=O)[C@@H](NC(=O)Oc1ccccc1)C1Cc3ccccc3C1)C2(C)C)C(=O)C(=O)NCC=C` (some centres unmarked) displayed a Ki of 101 to 1000 nM.

The assay is the same for the next values; noted with them: Ki* Range, Table 5; HCV NS3/NS4A protease, spectrophotometric assay, 30° C., pH 6.5.
`CCCC(NC(=O)C1C2C(CN1C(=O)C(NC(=O)Oc1ccc(C(=O)OC)cc1)C1CCCCC1)C2(C)C)C(=O)C(N)=O` (centres unmarked): the Ki is 101 to 1000 nM.

Staying with this assay, now noted: Table 4; HCV NS3/NS4A protease, spectrophotometric assay, 30° C., pH 6.5; read-out: Ki* Range.
Regarding `CCCC(NC(=O)[C@@H]1C[C@@H](NC(=O)Nc2ccccc2)CN1C(=O)[C@@H](NC(=O)c1ccccc1C(=O)O)C1CCCCC1)C(=O)C(=O)NCC(=O)N[C@H](C(N)=O)c1ccccc1` (some centres unmarked), the Ki was greater than 1000 nM. Same read-out and setting: to `CCC[C@@H](NC(=O)[C@@H]1CC(C)(C)CN1C(=O)[C@@H](NC(=O)O[C@@H](C)C(C)C)C1CCCCC1)C(=O)C(=O)NCC(=O)N[C@H](C(=O)N(C)C)c1ccccc1` belongs 1 to 100 nM. On the same count and under the same terms, to `CCCC(NC(=O)C1CC(C)(C)CN1C(=O)[C@@H](NC(=O)O[C@H](C)C(C)C)C1CCCCC1)C(=O)C(=O)NCC(=O)NC(C(=O)N(C)C)c1ccccc1` (some centres unmarked) belongs 1 to 100 nM.

With `CC(C)COC(=O)N[C@H](C(=O)N1C[C@@H]2C([C@H]1C(=O)N[C@@H](CC(C)C)C(=O)C(=O)NCC(=O)N[C@H](C(=O)N(C)C)c1ccccc1)C2(C)C)C1(C)CCCCC1` (some centres unmarked), the Ki fell in the range of 1 to 100 nM. Still for that read-out and setting: the same measure for `CCC[C@@H](NC(=O)[C@@H]1C2[C@@H](CN1C(=O)[C@@H](NC(=O)OCC(C)C)C1(C)CCCCC1)C2(C)C)C(=O)C(=O)NCC(=O)N[C@H](C(=O)N(C)C)c1ccccc1` (some centres unmarked): 1 to 100 nM. With `CCC[C@@H](NC(=O)[C@@H]1CC(C)(C)CN1C(=O)[C@@H](NC(=O)OCC(C)C)C1CCC(C)(C)CC1)C(=O)C(=O)NCC(=O)N[C@H](C(=O)N(C)C)c1ccccc1`, the Ki was in the range of 1 to 100 nM. In the case of `CCCC(NC(=O)[C@@H]1[C@@H](C)CCN1C(=O)[C@@H](NC(=O)OCC(C)C)C1CCCCC1)C(=O)C(=O)NCC(=O)NC(C(=O)N(C)C)c1ccccc1` (some centres unmarked), the Ki lay within 1 to 100 nM. For the compound `CCCC(NC(=O)[C@@H]1CC(C)(C)CN1C(=O)[C@@H](NC(=O)OCC(C)C)C1CCCCC1)C(=O)C(=O)N[C@@H](C(C)=O)C(=O)N[C@H](C(=O)O)c1ccccc1` (some centres unmarked), the Ki was greater than 1000 nM.

For the compound `CCCC(NC(=O)[C@@H]1C[C@@H](CNC(=O)c2ccccc2)CN1C(=O)[C@@H](NC(=O)OCC(C)C)C1CCCCC1)C(=O)C(=O)NCC(=O)N[C@H](C(N)=O)c1ccccc1` (some centres unmarked), the Ki is 1 to 100 nM. Still for that read-out and setting: to `CCCC(NC(=O)[C@@H]1C[C@@H](CNC(=O)c2cccc(Oc3ccccc3)c2)CN1C(=O)[C@@H](NC(=O)OCC(C)C)C1CCCCC1)C(=O)C(=O)NCC(=O)N[C@H](C(N)=O)c1ccccc1` (some centres unmarked) belongs 101 to 1000 nM; to `CCCC(NC(=O)[C@@H]1C[C@@H](CNS(=O)(=O)c2ccccc2)CN1C(=O)[C@@H](NC(=O)OCC(C)C)C1CCCCC1)C(=O)C(=O)NCC(=O)N[C@H](C(N)=O)c1ccccc1` (some centres unmarked), 1 to 100 nM. Consider `CCCC(NC(=O)C1C[C@@H](NS(=O)(=O)c2cccc(Cl)c2)CN1C(=O)[C@@H](NC(=O)OCC(C)C)C1CCCCC1)C(=O)C(=O)NCC(=O)N[C@H](C(N)=O)c1ccccc1` (some centres unmarked), for which the Ki was 101 to 1000 nM.

For the compound `CCCC(NC(=O)C1C[C@@H](NS(=O)(=O)c2ccc(Cl)c(Cl)c2)CN1C(=O)[C@@H](NC(=O)OCC(C)C)C1CCCCC1)C(=O)C(=O)NCC(=O)N[C@H](C(N)=O)c1ccccc1` (some centres unmarked), the Ki lay in the range of 101 to 1000 nM. With `CCCC(NC(=O)C1C[C@@H](NS(=O)(=O)c2ccc(C)cc2)CN1C(=O)[C@@H](NC(=O)OCC(C)C)C1CCCCC1)C(=O)C(=O)NCC(=O)N[C@H](C(N)=O)c1ccccc1` (some centres unmarked), the Ki was in the range of 101 to 1000 nM.

Regarding `CCCC(NC(=O)[C@@H]1C[C@@H](NC(=O)Nc2ccccc2)CN1C(=O)[C@@H](NC(=O)OCC(C)C)C1CCCCC1)C(=O)C(=O)NCC(=O)N[C@H](C(N)=O)c1ccccc1` (some centres unmarked), the Ki lay in the range of 1 to 100 nM. Same read-out and setting: the same measure for `CC(C)COC(=O)N[C@H](C(=O)N1CC2C([C@H]1C(=O)N[C@@H](CC(C)C)C(=O)C(=O)NCC(=O)N[C@H](C(=O)N(C)C)c1ccccc1)C2(C)C)C(C)(C)C` (some centres unmarked): 1 to 100 nM; for `CC(C)C[C@H](NC(=O)[C@@H]1C2[C@H](CN1C(=O)[C@@H](NC(=O)OC(C)C)C(C)(C)C)C2(C)C)C(=O)C(=O)NCC(=O)N[C@H](C(=O)N(C)C)c1ccccc1` (some centres unmarked): 1 to 100 nM; for `CCC[C@H](NC(=O)[C@@H]1C2[C@H](CN1C(=O)[C@@H](NC(=O)OC(C)C)C(C)(C)C)C2(C)C)C(=O)C(=O)NCC(=O)N[C@H](C(=O)N(C)C)c1ccccc1` (some centres unmarked): 1 to 100 nM. Same read-out and setting: the same measure for `CCCC(NC(=O)[C@@H]1CCC(C)N1C(=O)[C@@H](NC(=O)OC(C)C)C(C)(C)C)C(=O)C(=O)NCC(=O)N[C@H](C(=O)N(C)C)c1ccccc1` (some centres unmarked): 1 to 100 nM.
